Results published in the supplement of paper PMC11417369.
Some of the results follow.

Test system: PfSIP2 AP2 domain 1 (GST-tagged)
Test: gcPBM binding intensity (ln(normalized median fluorescence intensity)); higher = stronger DNA binding
Method in brief: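 Plasmodium falciparum DNA-binding domains carrying a GST tag were expressed in E. coli and applied for 1 h, at about 25 μg on average, to an Agilent 4 × 180k array. The array held primer-extended double-stranded 36-bp intergenic genomic probes together with negative controls, and binding took place in 1× PBS with 1% milk, 0.2 mg/ml BSA, 0.5% salmon testes DNA and 0.03% Triton X-100. An Alexa488 anti-GST antibody detected bound protein, and the array was scanned at 488 nm. Binding intensity is taken as the highest Masliner-normalised natural-log median intensity across replicate spots of either probe orientation.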

| Sequence | gcPBM binding intensity (ln) |
| --- | --- |
| TATTTTTTCTTTCATTGTACTTTTTTTTTGTTTTGT [XGTACX_site4081] | 6.86 |
| AATGAGAAATATAATTGTACATATATTTATTTTCAT [XGTACX_site3669] | 7.04 |
| ATTTGTAAAAAATTCATACACACGTCTTATTTTTAA [CACACA_site1390] | 6.86 |
| AAAAAATTAATATTGACACACATTTTTAAGAATAAT [CACACA_site239] | 6.73 |
| AAACAAAAAATTTAAAGTACAAAAATTATGATTGTT [XGTACX_site465] | 6.98 |
| CAAAAGGATAGGCACACACACACACCCATATATATA [CACACA_site2199] | 7.55 |
| AATATGTCTATATTTTTTATATGGAAATATTATAAA [GTGCAC_negctrl_site700] | 6.97 |
| TTTTTTTTTTTTTTTTTTTTTTTATCTATTATTTAT [XGTACX_negctrl_site496] | 6.97 |
| TATTTATATTTATATACACACATACATATTTATATT [CACACA_site6535] | 6.74 |
| TATTTTGTAATAATTACACACGGAATTATAACAGAA [CACACA_site2355] | 7.2 |
| TCTTAATTTGTTATATGTACATAATATAATTGTATA [XGTACX_site5184] | 7.34 |
| TTATATTAATAAAAAGAAAATCATTTTTTCTTTTAT [CACACA_negctrl_site1595] | 6.5 |
| ATATATATATTTATATTTATATGTAAATATCAACGT [TGCATGCA_negctrl_site32] | 8.59 |
| ATTGTGTTAATGAAATGTACATTTTCTCTACGTTAA [XGTACX_site1322] | 6.89 |
| AATATTATGTATAACCGTACATTATATATATAATAA [XGTACX_site1594] | 6.84 |
| TTAAACTTGTTTTGGATGCACTATATAATTCATTTT [GTGCAC_site9549] | 8.37 |
| ATTAAAATAATTTAATTTCTTAGACACAATTTGTAA [GTGCAC_negctrl_site331] | 6.7 |
| GTGTAAAGGTATTATTGTATTATTCAAAATAAAAAA [CACACA_negctrl_site637] | 7.37 |
| TCCTACATATTATAGTGTACATTTTCATGTTCATAT [XGTACX_site4308] | 7.05 |
| AAGTATTATATATTTTGTACATATATAAAACCACAA [XGTACX_site5508] | 7.13 |
| TATATATATATATGTGCACACCAATTGTATGTAATA [CACACA_site3888] | 9.59 |
| TCATAAAAGATTAAGTGTACATGTGCTACTCTTATA [XGTACX_site6255] | 6.79 |

| Sequence | gcPBM binding intensity (ln) |
| --- | --- |
| AATATAAAATCAAGAAATTAAAAAAAAACAGAAAAC [CACACA_negctrl_site1004] | 7.32 |
| ACAAGATAATAGAGAAGTACTAATAAACATACACAA [XGTACX_site6617] | 6.97 |
| TATGTTCCTTTTTGTTGTACTGAAAAATTATGTTCA [XGTACX_site3981] | 7.28 |
| ATAATATAAATTAATTTACACACTAATAAATATATA [CACACA_site9259] | 6.93 |
| ATTTTAAATTTATCTGTGCACAGTATTATATAAGCA [GTGCAC_site9806] | 8.24 |
| TATTTTTTATGATTAACACACACACTAATAAAAAAA [CACACA_site9370] | 7.43 |
| TATATATATATATATAGTACGCACACATAGTTGCAA [XGTACX_site5875] | 9.25 |
| ATTCTTACTAATATCGCACACACATATGTAGACGGG [CACACA_site88] | 7.08 |
| ATTTTTTTATTTTTGTGTACTTATAAGAATATTAAT [XGTACX_site4850] | 7.41 |
| AATGAATATATTTATTGTACATATATGAATATTGCA [XGTACX_site8689] | 7.05 |
| AAAAAAAAAAAAAAAAGTACAAAAAGGAGAAAGATA [XGTACX_site7862] | 7.55 |
| ACCCAGTGTATTCATAGTACACGCTCATATATTATC [XGTACX_site423] | 6.99 |
| AGGTTTATAAAAAAAAAAAAAAAAAAAAAAAAAAAA [GTGCAC_negctrl_site113] | 7 |
| AATATTTAAAACATATGTACTGAAAAACAATTGGAC [XGTACX_site6360] | 7.33 |
| CACAAAGGTCTGAAATTTTAGGGGTGCCTGGGACTA [CACACA_negctrl_site681] | 8.32 |
| AACAAGTTGCATGGTGCACACATGTATATATATCTA [CACACA_site2548] | 11.6 |
| AAAATGTATGTAGTCTGTACAAATACTCTATAAATA [XGTACX_site6475] | 6.87 |
| TACAATTTTACTCATAAACACACATATATATGTTAT [CACACA_site9031] | 7.05 |
| TTATACCTATATTTAACACACATTTGATAAAGTGCC [CACACA_site6732] | 6.83 |
| AAAAAATTTGTTTATTGTACAGAAAGAATTATTATA [XGTACX_site6549] | 7.04 |
| TTGTAGGTAAATATGTGTACGCATTATTATTCTTAA [XGTACX_site216] | 7.61 |
| GAGAGAGAAATAAAAAGTACATACATATATATACAT [XGTACX_site2267] | 6.91 |
